Source: US20140086901A1, “Inhibition of Post-Radiation Tumor Growth” (The Board of Trustees of the Leland Stanford Junior …, priority 2008, published 2014)

Test system: CD11b+ myelomonocytic cells expressing MMP-9
Experiment: Immunostaining quantification of CD11b+, MMP-9+, CD31+ and α-SMA in MT1A2 tumors
Assay type: in vivo, mouse

Compound: O=P(O)(O)C(O)(Cn1ccnc1)P(=O)(O)O [ZA, aminobisphosphonate zolendronic acid]
- fraction of CD11b+ cells that were MMP-9+ vs control (MMP-9 KO+WT BM mice): smaller fraction
- number of CD31-expressing vessels vs control tumors (MMP-9 KO+WT BM mice): significantly fewer
- vessels associated with α-SMA vs control tumors (MMP-9 KO+WT BM mice): significantly more
- number of CD11b+ cells in treated vs control tumors (WT+KO BM mice): no significant difference
- percentage of CD31+ tumor vessels associated with α-SMA (WT+KO BM mice): not affected
